From PMC12629600

Molecular target: human insulin (Sigma #I2643) (human) (UniProt P01308)
Assay: ELISA; human insulin coated at 1 ug/ml in borate buffered saline pH 8 on Maxisorp plates; mAbs serially diluted 1:2 from 10 ug/ml in 0.5% chicken serum PBS-T, room temperature; detected with goat anti-human IgG-HRP; AUC compared to the isotype negative control, positive cutoff AUC ratio of 7

Sequence of UniProt P01308 (P01308 25-54, chain 1 of 2): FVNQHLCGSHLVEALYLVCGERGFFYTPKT
Sequence of UniProt P01308 (P01308 90-110, chain 2 of 2): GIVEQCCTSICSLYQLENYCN

Insulin-binding AUC ratio (to the isotype negative control) | Binder
10.3 | Stage 1 T1D mAb 3 (antibody, V domains shown) VH: [about 100 residues not shown]DSGYCVDWGQGTLVTVSS VL: DIQMTQSPSTLSASVGDRVTITCRASQSISSWLAWYQQKPGNAPNLLIYKASSLESGVPSRFSGSGSGTEFTLTISSLQPDDFATYYCQQYNSNRTFGQGTKVEIK
10 | Stage 1 T1D mAb 15 (antibody, V domains shown) VH: QVQLQQSGPGLVKPSQTLSLTCVISGDSVSRNSAAWNWIRQSPSRGLEWLGRTYYKSKWYNDYAVSVKSRITINPHTSKNQFSLQLNSVTPEDTAVYYCARSPPRRAALPFRYYGMDVWGQGTTVTVSS VL: [about 100 residues not shown]PETFGQGTKLEIK
